PubChem BioAssay AID504339 (National Center for Advancing Translational Sciences (NCATS), 2011)
Hit rate of the full screen: of about 390,000 compounds, about 17,000 (4.4%) were called active. Inconclusive means that the source gave no clear call. Such entries were picked first, then a sample of the others. Calls come from the whole dose curve; as a rule, active = well fitted inhibition curve with a large enough effect; inconclusive = small, poorly fitted or top-dose-only effect; inactive = no such curve, though single readings can be large or run the other way. Potencies beside an inconclusive call are fits to weak or partial responses and may not hold up.

molecular target: Lysine-specific demethylase 4A (Homo sapiens) (UniProt O75164); test: qHTS Assay for Inhibitors of JMJD2A-Tudor Domain; details: AlphaScreen JMJD2A-Tudor / H3K4me3 peptide binding; series mostly up to 114 µM; note: nearly all actives have a fitted effect of over 50% in size
Chain of UniProt O75164 (O75164 whole entry, looked up, the tested form may be a part): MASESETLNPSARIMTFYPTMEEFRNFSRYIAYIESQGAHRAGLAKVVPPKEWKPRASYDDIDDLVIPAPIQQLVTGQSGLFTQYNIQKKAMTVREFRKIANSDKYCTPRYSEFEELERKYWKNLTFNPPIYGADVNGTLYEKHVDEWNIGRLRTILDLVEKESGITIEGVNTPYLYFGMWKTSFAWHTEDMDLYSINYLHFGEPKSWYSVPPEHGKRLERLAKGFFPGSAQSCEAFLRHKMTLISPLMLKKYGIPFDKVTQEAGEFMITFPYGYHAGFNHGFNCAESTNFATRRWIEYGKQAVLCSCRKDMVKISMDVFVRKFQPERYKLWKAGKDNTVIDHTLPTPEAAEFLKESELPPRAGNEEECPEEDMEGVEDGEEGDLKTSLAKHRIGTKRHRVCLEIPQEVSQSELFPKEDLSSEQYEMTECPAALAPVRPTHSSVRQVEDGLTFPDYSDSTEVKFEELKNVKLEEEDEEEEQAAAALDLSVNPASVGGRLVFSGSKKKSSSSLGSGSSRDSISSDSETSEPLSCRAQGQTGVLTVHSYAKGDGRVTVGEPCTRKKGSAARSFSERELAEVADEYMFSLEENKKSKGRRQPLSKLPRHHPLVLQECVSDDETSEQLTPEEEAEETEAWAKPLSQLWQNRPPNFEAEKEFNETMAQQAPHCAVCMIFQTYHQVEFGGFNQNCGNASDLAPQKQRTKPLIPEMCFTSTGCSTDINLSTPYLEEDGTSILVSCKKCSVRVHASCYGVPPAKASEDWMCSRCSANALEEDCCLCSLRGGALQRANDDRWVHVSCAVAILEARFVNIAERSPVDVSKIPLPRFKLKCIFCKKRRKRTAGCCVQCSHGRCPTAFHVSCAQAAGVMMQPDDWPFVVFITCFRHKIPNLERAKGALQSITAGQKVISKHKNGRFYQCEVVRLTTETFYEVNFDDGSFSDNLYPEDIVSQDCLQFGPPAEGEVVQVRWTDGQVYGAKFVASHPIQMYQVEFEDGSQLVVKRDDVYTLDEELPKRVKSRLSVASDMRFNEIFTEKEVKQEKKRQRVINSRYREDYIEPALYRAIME
Potency is the fitted concentration of half-maximal effect; tags give direction and shape of the fitted curve.

Row | Structure (SMILES) | Potency
1 | Cc1cccc(NC2SC(=O)NC2=O)c1 (stereo not given) | inconclusive: 39.8 µM [inhibitor, single point]
2 | COCCNC(=S)NNc1cccc(C(=O)O)c1 | active: 10 µM
3 | O=c1ccccn1Cc1c(F)cccc1Cl | inconclusive: 3.55 µM [inhibitor, single point]
4 | O=C(O)c1ccc(NC(=O)c2cc(S(=O)(=O)N3CCCCC3)c(Cl)cc2Cl)cc1 | inactive
5 | Brc1ccc2nc(-c3cccs3)c(NCC3CCCO3)n2c1 (stereo not given) | inactive
6 | CSc1ccc(-c2nc3cccc(C)n3c2Nc2ccc(Cl)cc2)cc1 | inconclusive: 31.6 µM [inhibitor, partial curve]
7 | CCn1c(=O)cc(OCC(=O)N(C)c2cc(Cl)ccc2C)c2ccccc21 | inactive
8 | Cc1ccc(Sc2cnc(N)nc2C)cc1 | inconclusive: 14.1 µM [inhibitor, full curve, poor fit]
9 | CSc1nc(O)c(C(c2ccc(O)cc2)c2c(O)nc(SC)[nH]c2=O)c(=O)[nH]1 | inactive
10 | CCOC(=O)CC(NC(=O)C1c2ccccc2Oc2ccccc21)c1ccccc1Cl (stereo not given) | inconclusive: 89.1 µM [inhibitor, single point]
11 | Cc1ccc(C(=O)Oc2ccc(-c3nccc(-c4ccccn4)n3)cc2)cc1 | inactive
12 | COc1cccc(CNC(=O)CN2C(=O)CSc3ccc(S(=O)(=O)N4CCCCC4)cc32)c1 | inactive
13 | Cc1ccccc1N1C(=O)c2sc3nc4c(c(=O)n3c2C1=O)CCC4 | inconclusive: 22.4 µM [inhibitor, full curve, poor fit]
14 | COc1cc(Nc2nc3c(S(=O)(=O)c4ccc(C)c(C)c4)nnn3c3ccsc23)cc(OC)c1 | inconclusive: 56.2 µM [inhibitor, partial curve]
15 | CN(C)C(CNC(=O)c1cc(S(=O)(=O)N(C)c2ccccc2)ccc1Cl)c1ccccc1 (stereo not given) | inconclusive: 0.631 µM [inhibitor, full curve, poor fit]
16 | COCCNC(=O)c1onc(CSc2ccc(F)c(F)c2)c1C(=O)NCCOC | inactive
17 | CC(=O)c1nc(N2CCN(S(=O)(=O)c3ccc(C)cc3)CC2)c2ccccc2n1 | inconclusive: 79.4 µM [inhibitor, partial curve]
18 | O=S(=O)(O)c1cccc(N=Nc2c(O)ccc3ccccc23)c1 | inconclusive: 44.7 µM [inhibitor, partial curve]
19 | Oc1ccc(NCc2ccccc2OCc2ccc(Cl)cc2)cc1 | inconclusive: 56.2 µM [inhibitor, partial curve]
20 | Cc1cc2c(s1)c1cnn(Cc3ccccc3Cl)c(=O)c1n2C | inactive
21 | Cc1ccc(Nc2nc(CSc3nnc(-c4cccnc4)n3-c3ccccc3C)cs2)cc1 | inconclusive: 50.1 µM [inhibitor, partial curve]
22 | COc1cc(C(=O)NNC(=O)c2nn(C)c(=O)c3ccccc23)cc(OC)c1OC | inconclusive: 25.1 µM [inhibitor, single point]
23 | CCCCC(=O)N/N=C/c1ccc(-c2ccc([N+](=O)[O-])cc2)o1 | inactive

Row | Structure (SMILES) | Potency
24 | O=C1C(=O)N(Cc2cccnc2)C(c2ccccn2)/C1=C(/O)c1ccc(F)cc1 (stereo not given) | inconclusive: 100 µM [inhibitor, single point]
25 | C=CCN1C(=O)c2oc3ccccc3c(=O)c2C1c1ccc(O)c(OC)c1 (stereo not given) | inactive
26 | COc1ccc(S(=O)(=O)N2CCN(c3nc(-c4cccs4)nc4ccccc34)CC2)cc1OC | inactive
27 | CCCc1cc(=O)[nH]c(-n2[nH]c3c(c2=O)CCCC3)n1 | inconclusive: 0.708 µM [inhibitor, full curve, poor fit]
28 | CCCCNCCOc1ccccc1-c1ccccc1 | active: 3.55 µM
29 | Cc1ccc2c(c1)CCCN2CC(=O)Nc1cccc(S(=O)(=O)N2CCCC2)c1 | inconclusive: 44.7 µM [inhibitor, partial curve]
30 | CC(=O)C1=C(c2ccccc2)NC(=O)NC1c1ccc(O)c(O)c1 (stereo not given) | active: 12.6 µM
31 | CSc1ncc(CN2CCc3c([nH]c4ccccc34)C2c2cccc(C)n2)cn1 (stereo not given) | inconclusive: 56.2 µM [inhibitor, partial curve]
32 | N#CC(C#N)=c1ccc2c(c1)N1C3=C(CCCC3)CC3CCCCC31N=2 (stereo not given) | active: 44.7 µM
33 | Fc1ccccc1N1CCN(c2nccn3nc(-c4ccc(Br)cc4)cc23)CC1 | inactive
34 | O=C(NCc1ccccc1Cl)C1CCN(S(=O)(=O)c2ccc(N3CCCC3=O)cc2)CC1 | inconclusive: 15.8 µM [inhibitor, partial curve, poor fit]
35 | CCOc1cc(/C=C(\CC(=O)O)c2nc3ccccc3s2)ccc1OCC(=O)Nc1cccc(C(F)(F)F)c1 | inconclusive: 89.1 µM [inhibitor, single point]
36 | Cc1ccc2c(c1)c1c(n2CC(O)CNC(CO)(CO)CO)CCCC1 (stereo not given) | inconclusive: 35.5 µM [inhibitor, partial curve]
37 | Cc1ccc2cc(C3CC(c4ccco4)=NN3S(=O)(=O)c3ccccc3)c(Cl)nc2c1 (stereo not given) | inactive
38 | Cc1ccc(NC(=O)Cn2nc(Cc3ccncc3)c3ccccc3c2=O)c(Cl)c1 | inconclusive: 25.1 µM [inhibitor, partial curve]
39 | O=C(CSc1ncn[nH]1)Nc1nsc(-c2ccccc2)n1 | inactive
40 | Cc1[nH]c2ccccc2c1C1=NNC(=Nc2ccc(F)cc2)SC1 | active: 56.2 µM
41 | NC(=O)CC(NC(=O)c1ccc(Br)cc1)c1ccc(N2CCC(Cc3ccccc3)CC2)c([N+](=O)[O-])c1 (stereo not given) | inconclusive: 31.6 µM [inhibitor, partial curve]
42 | CCCN1C(=O)/C(=N\OCC(=O)Nc2ccc(C(C)C)cc2)c2ccccc21 | inconclusive: 11.2 µM [inhibitor, full curve, poor fit]
43 | O=C(NNc1ccccc1[N+](=O)[O-])Nc1cccc(Cl)c1 | inconclusive: 31.6 µM [inhibitor, partial curve]
44 | O=C(O)C1CCCN1c1ncnc2ccccc12 (stereo not given) | inconclusive: 89.1 µM [inhibitor, single point]
45 | Cc1cc(N2C(=O)C(O)=C(C(=O)c3cc4ccccc4o3)C2c2cccc(Cl)c2)no1 (stereo not given) | inconclusive: 44.7 µM [inhibitor, partial curve]
